From PubChem BioAssay AID588795 (National Center for Advancing Translational Sciences (NCATS), 2011)
Out of some 390,000 compounds screened, about 1,400 (0.36%) were called active. Inconclusive means that the source gave no clear call. Such entries were picked first, then a sample of the others. Calls come from the whole dose curve; as a rule, active = well fitted inhibition curve with a large enough effect; inconclusive = small, poorly fitted or top-dose-only effect; inactive = no such curve, though single readings can be large or run the other way. A potency beside an inconclusive call is a rough fit, not a confirmed value.

Target: Flap endonuclease 1 (Homo sapiens) (UniProt P39748)
Assay: qHTS Assay for the Inhibitors of Human Flap endonuclease 1 (FEN1). Note: nearly all actives have a fitted effect of over 65% in size.
Conditions: Recombinant FEN1 flap cleavage, fluorescence, 15 min; series mostly up to 114 µM; activity change, negative = inhibition: at the top concentration
In short: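 In this screen, 50 nM flap DNA substrate was added to 10 nM FEN1 pretreated with compound for 15 min at room temperature; cleavage was followed with reads at 0 and 15 min, and Hill fitting gave concentration–response parameters.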
% is set by controls: 0 for no effect and ±100 for the full control effect; potency is the fitted concentration of half-maximal effect; tags give direction and shape of the fitted curve.

Chain of UniProt P39748 (P39748 whole entry, looked up): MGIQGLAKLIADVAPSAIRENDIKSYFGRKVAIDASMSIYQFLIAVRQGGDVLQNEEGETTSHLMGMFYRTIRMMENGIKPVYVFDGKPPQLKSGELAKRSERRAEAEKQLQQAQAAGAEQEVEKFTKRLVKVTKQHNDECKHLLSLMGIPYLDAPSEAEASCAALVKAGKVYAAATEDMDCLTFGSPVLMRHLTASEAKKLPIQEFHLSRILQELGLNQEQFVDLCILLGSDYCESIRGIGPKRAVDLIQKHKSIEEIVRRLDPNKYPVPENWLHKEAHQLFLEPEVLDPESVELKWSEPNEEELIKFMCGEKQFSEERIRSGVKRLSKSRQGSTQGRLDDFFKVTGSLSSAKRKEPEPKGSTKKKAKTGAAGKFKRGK

SMILES | activity change, negative = inhibition | Potency
Cc1cc(Nc2ccc(C)c(Cl)c2)n2nc(-c3ccccc3)nc2n1 | inactive: -5.97% | –
CCN(CC)c1nc(N)c2c(N)n(-c3ccccc3C)c(=S)c(C#N)c2c1C#N | inactive: -6.27% | –
COc1cc2c(cc1NC(=O)C1CCCO1)oc1ccccc12 (stereo not given) | – | inconclusive: 79.4 µM [inhibitor, partial curve, poor fit]
Fc1ccc(-c2noc3ncnc(NC4CCCCC4)c23)cc1 | inactive: -9.45% | –
COc1cc(C)c2c(c1C=O)Oc1c(c(C)c(O)c3c1C(O)OC3=O)OC2=O (stereo not given) | – | inconclusive: 20 µM [inhibitor, full curve]
Cc1c2cnn(CC(=O)NCCc3ccccc3)c(=O)c2c(C)n1Cc1ccccc1 | inactive: -19% | –
COc1ccc(/C=N/Nc2nc3ccccc3[nH]2)c(OC)c1OC | – | inconclusive: 89.1 µM [inhibitor, partial curve, poor fit]
COc1ccc(OC)c(NC(=O)c2cccn2-c2nnc(N3CCCCC3)s2)c1 | inactive: -3.44% | –
COc1cc(-c2ccc(Nc3ccccc3C(=O)O)c(OC)c2)ccc1Nc1ccccc1C(=O)O | – | inconclusive: 89.1 µM [inhibitor, single point]
CCC(Oc1ccc(C)cc1)C(=O)Nc1ccc(S(=O)(=O)Nc2cc(C)on2)cc1 (stereo not given) | inactive: -4.16% | –
O=C1CCCC2=C1C(c1ccc(O)c(O)c1)c1c(ccc3ncccc13)N2 (stereo not given) | – | inconclusive: 89.1 µM [inhibitor, single point]
O=C(CCl)N1N=C(c2ccco2)CC1c1ccco1 (stereo not given) | – | inconclusive: 50.1 µM [inhibitor, partial curve]
CCOc1ccccc1N(CC(=O)N1CCc2ccccc2C1)S(=O)(=O)c1ccccc1 | – | inconclusive: 79.4 µM [inhibitor, partial curve, poor fit]
O=C(Nc1ccccc1)OCc1cc(-c2ccccc2Cl)on1 | – | inconclusive: 56.2 µM [inhibitor, partial curve, poor fit]
COc1cccc2sc3cc(NCCCN4CCOCC4)ccc3c(=O)c12 | – | inconclusive: 50.1 µM [inhibitor, partial curve]
CCCOC(=O)c1c(N)sc(C(=O)OCC)c1C | inactive: 11.3% | –
CCc1ccc(OCC2c3cc(OC)c(OC)cc3CCN2C(=O)COc2ccccc2)cc1 (stereo not given) | inactive: -18.6% | –
CC1C(c2ccccc2)N(C)C(c2ccccc2)CC1(O)c1ccccc1 (stereo not given) | – | inconclusive: 89.1 µM [inhibitor, single point]
COc1ccc(NC(=S)NC(=O)c2ccc3c(c2)OCCO3)cc1 | – | inconclusive: 100 µM [inhibitor, partial curve, poor fit]
CSc1nc2c(c(=O)n1Cc1ccccc1)SC(C)C2 (stereo not given) | inactive: -11.8% | –
COc1ccc(NC(=O)CSc2nc(NS(=O)(=O)c3ccccc3)cc(=O)[nH]2)cc1 | – | active: 56.2 µM
CCc1c(C)nc2cc(-c3ccc(OC)c(OC)c3)nn2c1NCC1CC1 | – | inconclusive: 70.8 µM [inhibitor, single point]
COC(=O)c1cc(C)[nH]c2c(C)cc3nc4ccccc4c3c12 | – | inconclusive: 44.7 µM [inhibitor, partial curve, poor fit]
Cc1cc(N/N=C/c2ccc3c(c2)OCO3)nc2ccccc12 | – | inconclusive: 70.8 µM [inhibitor, partial curve]

SMILES | activity change, negative = inhibition | Potency
CCCCOC(=O)c1ccc(NC(=O)c2nn(C)cc2Br)cc1 | – | inconclusive: 56.2 µM [inhibitor, partial curve, poor fit]
Cc1cccc2c1N(CCOc1ccc(C(C)(C)C)cc1)C(=O)C2=O | – | inconclusive: 79.4 µM [inhibitor, partial curve, poor fit]
COc1ccc(OC)c(/C=C/c2nc3ccccc3nc2C)c1 | – | inconclusive: 50.1 µM [inhibitor, partial curve, poor fit]
CC(=O)c1cccc(NC(=O)c2noc3c2CCCC3)c1 | inactive: -2.55% | –
Cc1ccc(C(=O)O)cc1N1C(=O)c2cccc3c([N+](=O)[O-])ccc(c23)C1=O | – | inconclusive: 14.1 µM [inhibitor, full curve, poor fit]
O=C(COC(=O)c1ccc([N+](=O)[O-])o1)NC12CC3CC(CC(C3)C1)C2 | – | inconclusive: 28.2 µM [inhibitor, full curve, poor fit]
CC(C)=C1CCC(C)CC1=NNC(N)=S (stereo not given) | inactive: 3.6% | –
Cc1cc(Nc2ccc3c(c2)OCCO3)c2cc(Cl)ccc2n1 | – | inconclusive: 50.1 µM [inhibitor, partial curve, poor fit]
Cc1c(CCNC(=O)c2ccc(Br)o2)sc2nc(-c3ccc(F)cc3)nn12 | inactive: 0.65% | –
O=C1OC(c2ccc(Cl)cc2)/C(=C(/O)c2ccccc2)C1=O (stereo not given) | – | inconclusive: 31.6 µM [inhibitor, partial curve, poor fit]
O=C1/C(=C/c2ccco2)CCC1C1CCCC1 (stereo not given) | inactive: -4.65% | –
CCc1nnc(SCCSc2nnc(CC)n2N)n1N | inactive: -3.56% | –
CCCCN(CC)CCCNC(=O)C1CCN(c2ncnc3c2sc2cccc(F)c23)CC1 | – | inconclusive: 89.1 µM [inhibitor, single point]
O=c1cnnc(N/N=C/c2ccccn2)[nH]1 | inactive: 5.66% | –
O=C(Nc1cccnc1)c1ccc(-c2cc(Cl)ccc2Cl)o1 | – | inconclusive: 79.4 µM [inhibitor, partial curve]
C=C(C)C(=O)Nc1cccc(C2=NOC3(C2)C[C@@H](C(N)=O)N(C(=O)CCCCC)C3)c1 (stereo not given in full) | – | active: 25.1 µM
CN1C=C/C(=C\c2cc[n+](C)c3ccccc23)c2ccccc21 | – | active: 28.2 µM
CN(C)c1ccc(C(CNS(=O)(=O)c2ccc(F)cc2)c2c[nH]c3ccccc23)cc1 (stereo not given) | – | inconclusive: 56.2 µM [inhibitor, partial curve, poor fit]
O=C(O)c1ccc(N/N=C/c2cc(Br)cs2)cc1 | inactive: 0.343% | –
CC1(C)Cc2cccc(OCC(=O)N3CCN(c4cccc(C(F)(F)F)c4)CC3)c2O1 | – | inconclusive: 79.4 µM [inhibitor, partial curve, poor fit]
Cc1ccccc1Nc1cc(C(=O)NCc2cccs2)c2ccccc2n1 | inactive: -3.39% | –
C=C(C)Cn1c(=O)c2c(nc3n2CCN3c2ccc(F)cc2)n(C)c1=O | inactive: 2.89% | –
COc1ccc(OC)c(/C=N/Nc2nncn2/N=C/c2cc(OC)ccc2OC)c1 | – | inconclusive: 50.1 µM [inhibitor, partial curve]
O=C(NCCCn1ccnc1)c1cccc(Br)c1 | – | inconclusive: 100 µM [inhibitor, single point]

SMILES | activity change, negative = inhibition | Potency
CCCCN1C(C(=O)c2ccccc2)=C(OC(C)=O)c2ccccc2S1(=O)=O | – | inconclusive: 28.2 µM [inhibitor, single point]
O=C1c2ccccc2NC(c2cn[nH]c2-c2ccc(Cl)cc2)N1O (stereo not given) | – | inconclusive: 89.1 µM [inhibitor, single point]
COc1cc(C(c2nnnn2C2CCCC2)N2CCc3ccccc3C2)ccc1O (stereo not given) | inactive: 1.47% | –
O=C(NCc1ccco1)C1CCCCN1S(=O)(=O)c1ccc(F)cc1 (stereo not given) | inactive: 7.35% | –
Cc1cc(C)c(C(=O)COC(=O)c2ccc([N+](=O)[O-])o2)cc1C | – | inconclusive: 17.8 µM [inhibitor, partial curve, poor fit]
COc1cc(C=c2c3ccccc3n3c2cc(-c2ccccc2)[n+]3C)cc(OC)c1OC | – | inconclusive: 79.4 µM [inhibitor, single point]
COc1ccc(C2C3=C(CC(C)(C)CC3=O)Nc3c2c(=O)n(C)c(=O)n3C)cc1OC (stereo not given) | inactive: 8.12% | –
Cc1cc(C(=O)N/N=C/c2ccc(-c3ccc([N+](=O)[O-])cc3Cl)o2)n[nH]1 | – | inconclusive: 89.1 µM [inhibitor, single point]
COc1cc(/C=C2\SC(=S)N(NC(=O)c3ccccc3O)C2=O)ccc1O | – | inconclusive: 44.7 µM [inhibitor, partial curve, poor fit]
O=C(O)c1cccc(N2C(=O)/C(=C/c3ccc(SCc4ccc(Cl)cc4)o3)SC2=S)c1 | – | inconclusive: 35.5 µM [inhibitor, single point]
O=C(N/N=C/c1cccc([N+](=O)[O-])c1)c1ccc(Br)cc1 | inactive: -14.5% | –
Cc1ccc2[nH]c3c(N4CCN(Cc5ccccc5)CC4)ncnc3c2c1 | – | inconclusive: 28.2 µM [inhibitor, partial curve, poor fit]
C=CCOC1=CS(=O)(=O)N(Cc2ccc(Br)cc2)c2ccc(Br)cc21 | – | inconclusive: 79.4 µM [inhibitor, partial curve, poor fit]
COc1ccc2nc(N(Cc3cccnc3)C(=O)C3CCCCC3)sc2c1 | – | inconclusive: 79.4 µM [inhibitor, partial curve, poor fit]
Cc1ccc(C2C(C#N)=C(N)SC(N)=C2C#N)cc1 | inactive: -4.78% | –
O=C(COC(=O)C1CC(=O)N(Cc2ccco2)C1)c1ccc(OC(=O)c2ccco2)cc1 (stereo not given) | – | inconclusive: 79.4 µM [inhibitor, partial curve, poor fit]
CCC(Oc1ccccc1OC)C(=O)Nc1ccc2c(c1)OCCO2 (stereo not given) | inactive: 12.1% | –
O=C(O)c1cc(C(=O)O)cc(N2C(=O)CSC2=S)c1 | – | inconclusive: 50.1 µM [inhibitor, single point]
Cc1ccc(CS(=O)Cc2ccc(C(=O)NC3CCC(C)CC3)o2)cc1 (stereo not given) | – | inconclusive: 89.1 µM [inhibitor, single point]
O=[N+]([O-])c1c(Nc2ccccc2O)ccc2nonc12 | inactive: -4.72% | –
CCCC1=Nc2cc(C(=O)NCCc3ccccc3)ccc2Sc2ccc(C)cc21 | – | active: 79.4 µM
COc1ccccc1NC(=O)NCc1cccn1Cc1ccccc1 | – | inconclusive: 79.4 µM [inhibitor, partial curve, poor fit]
